Data reported in the supplement of paper PMC9446081.
The campaign covered roughly 39,000 compounds. About 220 (0.56%) showed activity. The list shows a part of the results.
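Further: static incubation at 37 °C against the wild-type strain, values averaged over two biological replicates.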

These molecules were tested on Escherichia coli K-12 BW25113 (assay: relative growth (OD600 normalised to plate interquartile mean) (fraction); higher = less growth inhibition, active = 0.2 or less). Conditions: 50 µM; LB; incubation time: overnight (16-24 h).
In the case of `COc1ncccc1N`, the relative growth is reported as inactive: 1.01. With `C[C@@H]1COCS(=O)(=O)N1` the relative growth was inactive: 0.949. With `O=C(N[C@H]1CC=CC[C@H](CC(=O)N(CCO)Cc2ccccc2)C(=O)N[C@@H](Cc2c[nH]c3ccccc23)COC1=O)OCC1c2ccccc2-c2ccccc21` the relative growth was inactive: 1.01. With `C[C@@H]1CN([C@H](C)CO)C(=O)c2cc(NC(=O)c3ccncc3)ccc2O[C@@H](C)CCCCO[C@H]1CN(C)C(=O)Nc1ccc2c(c1)OCO2` the relative growth was inactive: 1. With `C[C@H]1CN([C@@H](C)CO)C(=O)c2cccc(NC(=O)Nc3ccc(F)cc3)c2O[C@H]1CN(C)Cc1ccc(Cl)c(Cl)c1` the relative growth was inactive: 0.998. For `CC1(C)CCC2(C)CCC3(C)C(=CCC4C5(C)CCC(OC(=O)c6ccccc6)C(C)(C)C5CCC43C)C2C1` (stereo not drawn) [beta-AMYRIN BENZOATE], the relative growth was inactive: 0.896. In the case of `Cc1noc(C)c1NC(=O)N(C)C[C@@H]1Oc2ccc(NS(C)(=O)=O)cc2CC(=O)N([C@@H](C)CO)C[C@@H]1C`, the relative growth is reported as inactive: 0.883. In the case of `C[C@@H]1CN([C@@H](C)CO)C(=O)c2cc(NC(=O)Cc3ccccc3)ccc2O[C@@H](C)CCCCO[C@@H]1CN(C)C(=O)C1CCCCC1`, the relative growth is reported as inactive: 1.02. In the case of `C[C@@H]1CN([C@H](C)CO)C(=O)c2cc(NC(=O)Nc3ccccc3)ccc2O[C@H]1CN(C)C(=O)Nc1ccc(C(F)(F)F)cc1`, the relative growth is reported as inactive: 0.993. For `Cc1noc(C)c1NC(=O)N(C)C[C@@H]1OCCCC[C@H](C)Oc2ccc(NS(=O)(=O)c3ccc(F)cc3)cc2C(=O)N([C@H](C)CO)C[C@@H]1C`, the relative growth was inactive: 0.996. For `C[C@@H]1CCCCO[C@@H](CN(C)CC2CC2)[C@H](C)CN([C@H](C)CO)C(=O)c2cc(NS(C)(=O)=O)ccc2O1`, the relative growth was inactive: 1.03. In the case of `CN1C(=O)c2cc(NC(=O)c3cnccn3)ccc2OC[C@@H]2O[C@H](CC(=O)N[C@H]3CCN(Cc4ccccc4)C3)CC[C@H]21`, the relative growth is reported as inactive: 0.978. `C[C@H](CO)N1C[C@H](C)[C@@H](CN(C)S(=O)(=O)c2cn(C)cn2)Oc2ccc(NS(=O)(=O)c3ccc(Cl)cc3)cc2CC1=O` was tested, and the relative growth was inactive: 1. For `C[C@@H]1CCCCO[C@@H](CN(C)Cc2ccc(C(F)(F)F)cc2)[C@H](C)CN([C@H](C)CO)C(=O)c2cc(NS(=O)(=O)c3ccc(F)cc3)ccc2O1`, the relative growth was inactive: 0.982. With `COc1ccc(S(=O)(=O)Nc2ccc3c(c2)C(=O)N([C@@H](C)CO)C[C@H](C)[C@@H](CN(C)C(=O)Nc2ccc(F)cc2)OCCCC[C@@H](C)O3)cc1` the relative growth was inactive: 0.933. In the case of `C[C@H]1CN([C@@H](C)CO)C(=O)c2cccc(NS(=O)(=O)c3ccc(F)cc3)c2O[C@H]1CN(C)C(=O)Nc1ccc(C(F)(F)F)cc1`, the relative growth is reported as inactive: 0.998.
